Measured values taken from PubChem BioAssay AID686979 (National Center for Advancing Translational Sciences (NCATS), 2013).
Values joined by “and” are separate entries in the source; they are usually repeats but may differ in a detail not shown here. Equal entries are not always repeated. Hit rate of the full screen: of about 420,000 compounds, about 50,000 (12%) were called active. This list was built around the results that the source calls inconclusive (neither active nor inactive); the mix of calls is not that of the screen. Calls follow the shape of the dose curve; as a rule, active = well fitted inhibition curve with a large enough effect; inconclusive = small, poorly fitted or top-dose-only effect; inactive = flat fitted curve, though single readings scatter. Potencies of inconclusive entries are left out as doubtful fits. More than one record can exist for a structure, and the calls need not agree.

Assay: qHTS for Inhibitors of human tyrosyl-DNA phosphodiesterase 1 (TDP1): qHTS in cells in presence of CPT; also: nearly all actives have a fitted effect of over 55% in size
Details: chicken DT40 Tdp1-/-;hTDP1 cells + 20 nM CPT, ATP luminescence, 48 h; activity change, negative = growth inhibition: at 46.2 µM (top of the series)
How it was run: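 Cell growth measured by CellTiter-Glo luminescence after a minimum 48 h, 37 C compound exposure with 20 nM CPT in Tdp1-knockout DT40 cells stably expressing hTDP1, seeded 400/well; qHTS titration format.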
% is scaled to controls: 0 for no effect and ±100 for the full control effect; potency is read from the fitted curve at half-maximal effect; tags tell the direction and shape of the fitted curve.

Structure (SMILES) | Potency | activity change, negative = growth inhibition
Cc1ccc(NC(=O)CN2C(=O)c3ccccc3Sc3ccc(C(=O)N4CCOCC4)cc32)cc1C | inactive | –
CC1CCc2noc(NC(=O)c3ccc([N+](=O)[O-])cc3)c2C1 (centres undefined) | inconclusive [inhibitor, partial curve] | –
O=C1Nc2ccccc2C1Cc1ccc(Br)cc1 (centres undefined) | inconclusive [inhibitor, single point] | –
COc1ccccc1OCCNCC(O)COc1cccc2[nH]c3ccccc3c12 (centres undefined) | inconclusive [inhibitor, partial curve, poor fit] | –
CN(CC(=O)NCC1CCCCC1)CC(=O)Nc1ccccc1Br | inactive | –
CCO[C@@H]1OC(C(=O)N2CCN(C)CC2)=C[C@H](c2coc3ccccc3c2=O)[C@H]1CCCO | inactive | –
COc1ccc(N(CC(=O)NCCSCc2ccc(C)cc2)S(=O)(=O)c2ccccc2)cc1 | inconclusive [inhibitor, partial curve, poor fit] | –
CCC(=O)N1CCc2cc(S(=O)(=O)NCCC(=O)Nc3ccc(C)cc3C)ccc21 | inconclusive [inhibitor, single point] | –
COc1ccc(CC(=O)NNC(=O)c2ccc(Br)o2)cc1 | inactive | –
CN1CCN(c2nnc(-c3ccccc3)c(-c3ccccc3)n2)CC1 | inactive | –
Cc1nnc(SCC(=O)NC2CCCCC2C)s1 (centres undefined) | inactive | –
COc1ccc(/C=N/NC(=O)c2cccc(NC(=O)c3ccccc3Cl)c2)cc1OC | inactive | –
CSc1cccc(NC(=S)N2CCCN(Cc3ccccc3F)C2)c1 | inconclusive [inhibitor, single point] | –
O=C(NCCN1CCOCC1)c1ccc2c(c1)N(Cc1ccc(Cl)cc1)C(=O)CS2 | inconclusive [inhibitor, single point] | –
Cc1ccccc1OCCSc1nc2ccc(NC(=O)c3ccco3)cc2s1 | active: 20.6 µM | –
CC(OC(=O)CCC(=O)c1ccccc1)C(=O)Nc1ccc(F)cc1 (centres undefined) | inactive | –
CC(=O)c1cccc(NC(=O)c2cc3sc(Cl)cc3n2C)c1 | inactive | –
CN(Cc1cccnc1)C(=O)CC1C(=O)NCCN1CC(c1ccccc1)c1ccccc1 (centres undefined) | inconclusive [inhibitor, single point] | –
COc1cccc(C(c2nnnn2C2CCCC2)N2CCN(C/C=C/c3ccccc3)CC2)c1OC (centres undefined) | inconclusive [inhibitor, single point] | –
COc1cc2c(cc1OC)C(C)N(C(=O)c1cc3ccccc3o1)CC2 (centres undefined) | active: 8.2 µM | –
COc1cc(NC(=S)NC(=O)c2cc(C)cc(C)c2)ccc1NC(=O)c1cccs1 | inconclusive [inhibitor, single point] | –
COc1ccc2nc(C)cc(N/N=C/c3ccc(F)cc3)c2c1 | active: 1.03 µM | –
CCCOC(=O)c1c(-c2ccccc2)nc(CC)c(C(=O)SCC)c1CCC | inconclusive [inhibitor, single point] | –

Structure (SMILES) | Potency | activity change, negative = growth inhibition
Cn1c(=NC(=O)c2ccc(S(=O)(=O)N3CCCc4ccccc43)cc2)sc2cc(S(C)(=O)=O)ccc21 | inactive | –
Nc1ccc(Oc2ccc3c(c2)C(=O)N(CC2CCCO2)C3=O)cc1 (centres undefined) | inactive | –
Cc1cccc(-c2nsc(SCC(=O)Nc3ccc4c(c3)OCO4)n2)c1 | inconclusive [inhibitor, single point] | –
O=C(c1ccoc1)N1CCN(c2cc(-c3ccccc3)nc3cc(-c4ccc(Br)cc4)nn23)CC1 | active: 11.6 µM | –
Cc1nn(Cc2ccc(Cl)cc2)c(C)c1NC(=O)CSc1nc2c(c(C(F)(F)F)n1)CCc1ccccc1-2 | inconclusive [inhibitor, single point] | –
CCC1C(=O)NCCN1C(=O)CCc1nnc(CCc2ccc(OC)cc2)o1 (centres undefined) | inactive | –
O=C1NC(=O)N(C2CCCCC2)CC1Br (centres undefined) | inconclusive [inhibitor, single point] | –
Cc1ccc(C(=O)N2CCCC(CCC(=O)N3CCN(c4ccccn4)CC3)C2)cn1 (centres undefined) | inconclusive [inhibitor, single point] | –
CCc1ccc2oc(-c3cccc(NC(=O)c4cccnc4)c3)nc2c1 | inconclusive [inhibitor, single point] | –
CCOc1cc(C(=O)N(CC)CC(=O)Nc2c(F)cccc2F)ccc1OCC(=O)N1CCOCC1 | inactive | –
CCOC(=O)/C(=N\Nc1ccccc1)c1csc(Nc2ccc(C)cc2)n1 | inconclusive [inhibitor, single point] | –
Cc1cc(Cl)ccc1OCC(=O)OCC(=O)Nc1ccc(Cl)cn1 | inactive | –
COCCCn1cc(C(=O)c2cc(Br)ccc2O)cc(C#N)c1=O | inconclusive [inhibitor, partial curve] | –
Cc1cccn2c(=O)c3cc(C(=O)NCCCOC(C)C)sc3nc12 | inconclusive [inhibitor, partial curve, poor fit] | –
Cc1ccccc1Nc1nc(N)[nH]c(=O)c1N=O | inconclusive [inhibitor, single point] | –
CCCc1noc2c1C(c1cc(Br)ccc1F)C(C#N)=C(N)N2 (centres undefined) | inconclusive [inhibitor, single point] | –
Cc1ccc2c(cnn2C(=O)CCCC(=O)NCc2ccc(F)cc2)c1 | inconclusive [inhibitor, single point] | –
Cn1c(=O)c2c(nc(Cl)n2CC(=O)NC2(C#N)CCCCC2)n(C)c1=O | inconclusive [inhibitor, single point] | –
O=C(O)c1ccc2c(c1)N(Cc1ccccc1)C(=O)c1ccccc1S2 | inactive | –
Cc1ccc(C2N3CC4(C)CN2CC(c2ccccc2)(C3)C4=O)cc1 (centres undefined) | inconclusive [inhibitor, single point] | –
CC(=O)N1CCc2cc(C(=O)CN3CCN(c4ccccn4)CC3)ccc21 | inactive | –
CCOC(=O)c1ccc(NC(=S)Nc2ccc(Cl)cn2)cc1 | inconclusive [inhibitor, partial curve, poor fit] | –
Cc1cc(C)c(C(=O)COC(=O)C2CCN(c3ccc(C(F)(F)F)cn3)CC2)c(C)c1 | inconclusive [inhibitor, single point] | –

Structure (SMILES) | Potency | activity change, negative = growth inhibition
CCn1cc(/C=C(\NC(=O)c2ccccc2Cl)C(=O)NCCCn2ccnc2)c2ccccc21 | inconclusive [inhibitor, partial curve, poor fit] | –
Cc1ccc(NC(=O)c2ncn(CCCNCCCN3CCCC3=O)n2)cc1C | – | inconclusive: -30.4% [inhibitor]
C/C(CC(=O)Nc1ccc(Cl)cc1Cl)=N\NC(=O)c1ccco1 | inconclusive [inhibitor, single point] | –
O=C(NCC(=O)N(c1ccccc1F)C(C(=O)NC1CCCC1)c1ccncc1)c1ccco1 (centres undefined) | inactive | –
S=C(NCCCN(Cc1ccc(Cl)cc1)c1ccc(-c2ccccc2)cn1)NCCCN(Cc1ccc(Cl)cc1)c1ccc(-c2ccccc2)cn1 | inconclusive [inhibitor, single point] | –
CCN1CCN(c2ccc(S(=O)(=O)N3CCOCC3)cc2N)CC1 | inactive | –
COc1cc2ncc(S(=O)(=O)c3ccccc3)c(N3CCC4(CC3)OCCO4)c2cc1OC | inconclusive [inhibitor, partial curve] | –
COc1ccc(C(=O)OCc2c(-c3cccc(OC)c3)ncc3ccccc23)cc1 | inconclusive [inhibitor, partial curve, poor fit] | –
COCCNC(=O)CCCn1c(SCc2ccccc2C)nc2c(sc3ccccc32)c1=O | inconclusive [inhibitor, single point] | –
COC(=O)c1c2c(nc3ccccc13)CCC2 | inactive | –
CC(C)(C)NC(=O)C1c2ccccc2OCC(=O)N1C1CC1 (centres undefined) | inactive | –
O=C(c1cc(COc2ccc(F)cc2F)on1)N1C[C@H]2CC[C@H]1C2 | inconclusive [inhibitor, single point] | –
Cc1ccc(-n2ncc3c2CC(C)(C)CC3NC(=O)CCc2ccncc2)cc1 (centres undefined) | inconclusive [inhibitor, single point] | –
Cc1cccc(NC(=O)C2C3C=CC4(O3)C2C(=O)N(CCCN2CCCC2)C4C(=O)NC2CCCC(C)C2C)c1 (centres undefined) | inactive | –
CC(C)c1nc(CN(C)C(=O)N[C@H](C(=O)N[C@@H](Cc2ccccc2)C[C@H](O)[C@H](Cc2ccccc2)NC(=O)OCc2cncs2)C(C)C)cs1 | inactive and active: 16.8 µM | –
Cc1ccc(CNC(=O)c2ccc(N3Cc4ccccc4Oc4ncccc43)s2)cc1 | inconclusive [inhibitor, single point] | –
CCOc1ccc(C(=O)Nc2ccc(C(=O)OCc3cc(=O)n4c(C)csc4n3)cc2)cc1 | inconclusive [inhibitor, full curve, poor fit] | –
COc1cc2c(cc1OC)-c1cc3nc4ccccc4nc3n1C(C)(C)C2 | active: 11.9 µM | –
CCOCCCNC(=O)C(c1ccc(Cl)cc1)N(Cc1ccc2c(c1)OCO2)C(=O)c1ccc(NC(C)=O)cc1 (centres undefined) | inconclusive [inhibitor, single point] | –
Cc1cccc(C(=O)N2CCC[C@H]2C(=O)N2CCC[C@H]2C(=O)NCc2ccncc2)c1 | inactive | –
O=C(c1ccccc1C(=O)N1CCN(c2ccccc2)CC1)N1CCN(c2ccccc2)CC1 | inconclusive [inhibitor, partial curve] | –
CCOC(=O)c1oc2ccccc2c1COC(=O)CNC(=O)c1ccc(C)cc1 | inactive | –
Cc1cc(NC(=O)c2cc(-c3ccc(F)cc3)on2)nn1Cc1ccc(Cl)cc1 | inconclusive [inhibitor, single point] | –
